Measurements published in patent US8809350B2, “Purine and pyrimidine CDK inhibitors and their use for the treatment of autoimmune diseases” (priority 2004, dated 2014).
Read-outs that look alike come from different tables or passages of the source.

Legend:
[1] = tested on: NZB/W F1 mice; details: Example 2; for Renal Function - Cumulative % mice with BUN >30 mg/dl: daily from 5 months of age (CYC202 200 mg/kg gavage, MPS […] i.p.)
[2] = tested on: NZB/W F1 mice; details: Example 2, daily from 5 months of age (CYC202 200 mg/kg gavage, MPS […] i.p.)
[3] = tested on: NZB/W F1 mice; test: Proteinuria (urinary protein excretion) in NZB/W F1 lupus mice; type: in vivo; details: Example 2; for Cumulative percentage of mice with proteinuria >4 mg/day: daily from 5 months of age (CYC202 200 mg/kg gavage, MPS […] i.p.)
Description: Urinary protein excretion: determined every month until 5 months of age and then every two weeks.
Urinary protein excretion: determined every month until 5 months of age and then every two weeks;
Urinary protein concentration was determined by the Coomassie blue G dye-binding assay with bovine serum albumin as standard. Renal function was assessed as BUN in heparinized blood by the Reflotron test (Roche Diagnostics Corporation, Indianapolis, USA).

## C[C@H]1C[C@@H]2[C@H]([C@@H](O)C[C@@]3(C)[C@H]2CC[C@]3(O)C(=O)CO)[C@@]2(C)C=CC(=O)C=C12 [MPS, 11,17,21-trihydroxy-6-methyl-(6a,11b)-pregna-1,4-diene-3,20-dione, reference compound]
[1]; age 5 months (before treatment)
  Renal Function - Cumulative % mice with BUN >30 mg/dl: 0%
[1]; age 6 months
  Renal Function - Cumulative % mice with BUN >30 mg/dl: 0%
[1]; age 7 months
  Renal Function - Cumulative % mice with BUN >30 mg/dl: 17%
[1]; age 8 months
  Renal Function - Cumulative % mice with BUN >30 mg/dl: 42%
[1]; age 9 months
  Renal Function - Cumulative % mice with BUN >30 mg/dl: 50%
[1]; age 10 months
  Renal Function - Cumulative % mice with BUN >30 mg/dl: 58%
[1]; age 11 months
  Renal Function - Cumulative % mice with BUN >30 mg/dl: 58%
[1]; age 12 months
  Renal Function - Cumulative % mice with BUN >30 mg/dl: 67%
[1]; given alone versus in combination
  Renoprotective effect (serum BUN): less renoprotective effect than when used in combination
[2]; age 5 months (pre-treatment)
  Survival %: 100%
[2]; age 5.5 months
  Survival %: 100%
[2]; age 6 months
  Survival %: 100%
[2]; age 6.5 months
  Survival %: 92%
[2]; age 7 months
  Survival %: 75%
[2]; age 7.5 months
  Survival %: 67%
[2]; age 8 months
  Survival %: 67%
[2]; age 8.5 months
  Survival %: 67%
[2]; age 9 months
  Survival %: 42%
[2]; age 9.5 months
  Survival %: 42%
[2]; age 10 months
  Survival %: 33%
[2]; age 10.5 months
  Survival %: 33%
[2]; age 11 months
  Survival %: 33%
[2]; age 11.5 months
  Survival %: 33%
[2]; age 12 months
  Survival %: 33%
[3]; age 5 months (pre-treatment)
  Cumulative percentage of mice with proteinuria >4 mg/day: 0%
[3]; age 5.5 months
  Cumulative percentage of mice with proteinuria >4 mg/day: 0%
[3]; age 6 months
  Cumulative percentage of mice with proteinuria >4 mg/day: 16.7%
[3]; age 6.5 months
  Cumulative percentage of mice with proteinuria >4 mg/day: 33.3%
[3]; age 7 months
  Cumulative percentage of mice with proteinuria >4 mg/day: 33.3%
[3]; age 7.5 months
  Cumulative percentage of mice with proteinuria >4 mg/day: 50%
[3]; age 8 months
  Cumulative percentage of mice with proteinuria >4 mg/day: 75%
[3]; age 8.5 months
  Cumulative percentage of mice with proteinuria >4 mg/day: 75%
[3]; age 9 months
  Cumulative percentage of mice with proteinuria >4 mg/day: 75%
[3]; age 9.5 months
  Cumulative percentage of mice with proteinuria >4 mg/day: 75%
[3]; age 10 months
  Cumulative percentage of mice with proteinuria >4 mg/day: 75%
[3]; age 10.5 months
  Cumulative percentage of mice with proteinuria >4 mg/day: 75%
[3]; age 11 months
  Cumulative percentage of mice with proteinuria >4 mg/day: 75%
[3]; age 11.5 months
  Cumulative percentage of mice with proteinuria >4 mg/day: 75%
[3]; age 12 months
  Cumulative percentage of mice with proteinuria >4 mg/day: 75%
[3]; treatment from 5 months of age
  Onset of proteinuria compared to vehicle: only partially affected the onset of proteinuria
